# Results: publication PMC4336329 (PLoS ONE, 2015)
# Out of some 310,000 compounds screened, about 14,000 (4.5%) showed an effect of 50% or more. Effects have a minus sign here. This is one part of the list.
# Biological target: human ether-à-go-go-related gene (hERG) potassium channel (human, UniProt Q12809)
# Assay: primary screen, population patch clamp on CHO cells stably expressing hERG
# 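Further: peak tail current of the secondary pulse compared with the same well before compound.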
# Sequence of human ether-à-go-go-related gene (hERG) potassium channel (Q12809 whole entry, looked up): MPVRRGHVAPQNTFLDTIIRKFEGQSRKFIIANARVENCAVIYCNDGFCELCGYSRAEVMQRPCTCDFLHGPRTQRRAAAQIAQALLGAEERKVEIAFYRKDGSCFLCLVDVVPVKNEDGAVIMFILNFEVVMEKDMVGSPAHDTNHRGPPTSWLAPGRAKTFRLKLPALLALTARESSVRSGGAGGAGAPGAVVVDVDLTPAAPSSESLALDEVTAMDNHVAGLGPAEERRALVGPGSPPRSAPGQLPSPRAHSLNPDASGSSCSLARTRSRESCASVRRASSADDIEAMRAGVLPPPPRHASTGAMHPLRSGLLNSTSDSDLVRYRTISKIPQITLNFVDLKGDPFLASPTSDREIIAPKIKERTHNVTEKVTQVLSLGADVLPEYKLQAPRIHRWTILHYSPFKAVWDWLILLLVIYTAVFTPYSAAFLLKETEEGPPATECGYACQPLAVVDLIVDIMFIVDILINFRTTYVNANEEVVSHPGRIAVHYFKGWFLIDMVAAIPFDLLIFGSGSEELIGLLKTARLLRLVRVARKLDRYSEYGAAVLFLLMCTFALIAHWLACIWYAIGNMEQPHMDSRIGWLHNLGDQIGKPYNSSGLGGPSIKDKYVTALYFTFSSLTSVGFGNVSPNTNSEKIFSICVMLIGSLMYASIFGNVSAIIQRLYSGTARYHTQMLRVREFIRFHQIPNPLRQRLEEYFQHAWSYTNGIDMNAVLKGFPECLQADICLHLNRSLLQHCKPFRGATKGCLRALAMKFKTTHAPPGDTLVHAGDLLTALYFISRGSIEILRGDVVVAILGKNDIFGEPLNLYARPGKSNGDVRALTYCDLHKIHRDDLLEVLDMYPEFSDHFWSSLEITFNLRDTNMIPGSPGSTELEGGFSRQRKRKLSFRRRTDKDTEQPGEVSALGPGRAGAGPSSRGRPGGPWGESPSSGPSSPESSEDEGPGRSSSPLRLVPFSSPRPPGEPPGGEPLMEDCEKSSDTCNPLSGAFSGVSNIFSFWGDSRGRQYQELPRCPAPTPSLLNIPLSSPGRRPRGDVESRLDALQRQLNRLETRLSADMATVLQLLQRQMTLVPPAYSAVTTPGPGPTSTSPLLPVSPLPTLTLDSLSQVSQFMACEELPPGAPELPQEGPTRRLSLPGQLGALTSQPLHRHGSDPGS
row,Compound,"hERG current change (%, negative = inhibition) at 10uM [%]"
1,O=[N+]([O-])c1cc(C(F)(F)F)cc([N+](=O)[O-])c1NN=C1CCCCC1,0.0396
2,CCCCCOc1ccc(C(=O)NCCC(=O)NCCCC(=O)OCC)cc1,-5.05
3,CCOc1ccc(N2C(=O)S/C(=C\c3cc(OC)c(OC)c(OC)c3)C2=O)cc1,12
4,CCOc1ccc(C(=O)NC(=S)N2CCN(c3ccc(C(F)(F)F)cc3[N+](=O)[O-])CC2)cc1,-30.5
5,COCCn1c(=NC(=O)c2ccc(S(=O)(=O)N3CCOCC3)cc2)sc2cc(S(N)(=O)=O)ccc21,-10.2
6,COc1ccc(NC(=S)Nc2ccc(OCc3ccccc3)cc2)c(OC)c1,26.8
7,O=C(NCc1ccco1)c1cc(-c2ccncc2)nc2ccccc12,-18.5
8,CC(=O)c1sc2nc(SCC(=O)N3CCCCC3)[nH]c(=O)c2c1C,9.3
9,O=C(CN1C(=O)COc2ccc(S(=O)(=O)N3CCCC3)cc21)NC1CCCCCCC1,7.14
10,Cc1cc(SCC(=O)Nc2c(C)n(C)n(-c3ccccc3)c2=O)nc2ccccc12,-38.7
11,COC(=O)c1c(NC(=O)CC2SCC(C(=O)OC)NC2=O)sc2c1CCCC2 (centres unmarked),-5
12,CCCN(CCC)C(=S)NC(=O)c1ccc(-c2ccccc2)cc1,-13
13,CN(CC(=O)Nc1ccc(F)c(F)c1F)c1cnccn1,-5.08
14,CC(=O)Nc1ccc(C(=O)OCC(=O)Nc2c(F)cccc2F)cc1,-4.41
15,COCCOc1ccc(C(F)(F)F)cc1NC(=O)c1ccccc1F,3.36
16,Cc1ccc(NC(=O)/C=C\C(=O)NCC(=O)O)cc1C,4.2
17,CC1(C)CC(=O)C(Sc2ccccc2[N+](=O)[O-])=C(O)C1,4.99
18,O=C(O)c1cccc(NC(=O)C2CCCO2)c1 (centres unmarked),21.8
19,O=C(Nc1cc2c3c(c1)CC(=O)N3CCC2)c1ccccc1Br,0.0128
20,Cc1n(Cc2ccccc2)c2cc([N+](=O)[O-])ccc2[n+]1Cc1ccccc1.[Cl-],21.3
21,CCS(=O)(=O)N1CCN(C2CCC(C)CC2)CC1.O=C(O)C(=O)O (centres unmarked),-0.633
22,CCN1CCN(Cc2c(C(=O)N/N=C(\C)c3ccc(Cl)cc3)nnn2-c2nonc2N)CC1.Cl,1.12

row,Compound,"hERG current change (%, negative = inhibition) at 10uM [%]"
1,COc1c(C)cc(C(=O)C2CCCN(Cc3ccc(Oc4ncccn4)cc3)C2)cc1C (centres unmarked),-68.9
2,CCOc1c2ccc(C(=O)NCc3ccco3)cc2nn1CCOC,-0.63
3,CC1CCN(C(=S)c2cn(Cc3ccc(F)cc3)c3ccccc23)CC1,-1.82
4,COc1ccc(C(=O)N/N=C/c2ccccc2OC(=O)c2ccccc2)cc1,8.46
5,COc1ccc(C(=O)Nc2cc(C(C)=O)c(/C=C/N(C)C)oc2=O)cc1,-1.16
6,CCn1c(SCC(=O)NCc2ccc3c(c2)OCO3)nnc1-c1ccncc1,13
7,CC(=O)NC(Cc1ccccc1C)C(=O)NC1CCN(c2nnnn2-c2ccccc2)CC1 (centres unmarked),-3.31
8,CC(C)CSc1n[nH]c(N)n1,10.5
9,CCOc1ccc2nc(NC(=O)C3=NN(c4ccccc4)C(=O)CC3)sc2c1,-3.33
10,CCN(CC)S(=O)(=O)c1cccc(NC(=O)COC(=O)C2CC3C=CC2C3)c1 (centres unmarked),-19.5
11,O=C1c2ccccc2CC1(Cc1ccccc1)Cc1ccccc1,-10
12,O=C(CSCc1cccc(Cl)c1)N1CCN(Cc2ccc3c(c2)OCO3)CC1,-44.4
13,CCCCCCC(=O)Nc1ccc(C(=O)N/N=C/c2cccnc2)cc1,-21.1
14,O=C1NN=COc2ccccc21,14.9
15,CC(C)CC(=O)Nc1ccc(C(=O)COC(=O)C2=COCCO2)cc1,-23.5
16,Cc1nc(SCC(=O)Nc2ccc(Cl)cc2[N+](=O)[O-])nc(C)c1C,-1.92
17,CCOC(=O)C1CCCN(CCC(=O)Nc2ccc3c(c2)CCC3)C1 (centres unmarked),-50.4
18,CCOc1ncccc1-c1nc(-c2cccs2)no1,8.42
19,CN1CCN(C(=O)C2=C[C@H](c3ccc4c(c3)OCO4)C[C@H](OCCCCO)O2)CC1,-8.06
20,CCCc1ccc2oc(C(=O)N3CCN(C4CCS(=O)(=O)C4)CC3)c(C)c2c1 (centres unmarked),-51.3
21,CC(C)CC(=O)Nc1ccc(S(=O)(=O)N2CC3CC(C2)c2cccc(=O)n2C3)cc1 (centres unmarked),7.52
22,Cc1cccc(Nc2c([N+](=O)[O-])c(=O)n(C)c3ccccc23)c1,-25.7
